83 compounds from ChEMBL document CHEMBL5308541, “MAIP: An Open-Source Tool to Enrich High-Throughput Screening Output and Identify Novel, Druglike Molecules with Antimalarial Activity” (ACS Med Chem Lett, 2023) can be followed below.

The term % Inhibition denotes the change of the read-out against control, counted positive when it falls.

Molecules are shown by their SMILES. Screen size: about 150,000 compounds; about 540 (0.36%) showed an effect of 50% or more. This is one part of the list.

In this test the test system is Plasmodium falciparum. Briefly: Primary screen in NF54 nanoGlo assay, in single point, at 2uM, 72h; a lower Z score goes with more inhibition. The settings on record: timepoint 72 hour. The test is classed as functional, Erythrocyte.
With `O=C(CN1CCN(C2CCNCC2)C[C@@H](O)C1)NCc1ccccc1`, the “% Inhibition” value is recorded as -4% and the Z score is on record as 0.74.
In the case of `FC(F)(F)c1cccnc1N1CCN(C2CCN(CCOc3ccccc3)CC2)CC1`, the “% Inhibition” value is -2% and the Z score was 0.29.
As to `CCCc1noc(CN(C)Cc2[nH]cc(C)c(=O)c2C)n1`, the “% Inhibition” value is -4% and the Z score was determined as 0.78.
Take `CCCc1nc(NCC2CCN(Cc3ccc(C)o3)CC2)c2cnn(C)c2n1`: the “% Inhibition” value is listed as 4% and the Z score is listed as -0.68.
Take `CC(C)[C@@H]1N(C(=O)C2CCN(c3ncccn3)CC2)CC12CCC2`: the “% Inhibition” value is recorded as -13% and the Z score came to 1.95.
Turning to `Cc1cccc2nc(NCc3ccncc3O[C@H]3CCNC3)oc12`, the “% Inhibition” value turned out to be 5% and the Z score was -0.92.
Regarding `N#Cc1cccc(Nc2nc(N3CCN(c4ccccc4)CC3)nc3[nH]cnc23)c1`, the “% Inhibition” value is recorded as 4% and the Z score is given as -0.69.
For `CC(NC(=O)NC1CCCCNC1=O)c1cc2ccccc2o1` (stereo unspecified), the “% Inhibition” value is listed as 0% and the Z score is recorded as -0.03.
In the case of `NC1CC(c2cc(NC3CCN(Cc4ccncc4)CC3)ncn2)C1` (stereo unspecified), the “% Inhibition” value is reported as -10% and the Z score is reported as 1.76.
For the compound `Cc1nc2ccc(C(=O)N[C@@H](C)c3nncn3C(C)C)cc2o1`, the “% Inhibition” value is listed as -7% and the Z score was found to be 1.36.
For `OCC[C@H]1CN(c2ncc(F)c(N3CCOCC3)n2)CCN1C1CCCC1`, the “% Inhibition” value is listed as -3% and the Z score is 0.58.
Take `CC[C@H](NC(=O)c1ccc2nc(C)sc2c1)c1nc(C)c[nH]1`: the “% Inhibition” value is listed as -13% and the Z score is recorded as 2.18.
For the compound `FC(F)CN(Cc1ccc(CN2CCOCC2)cc1)C1CC1`, the “% Inhibition” value was -5% and the Z score was 1.18.
`Cc1ccc2[nH]nc(C(=O)N(CC3CCN(C4CCCC4)CC3)C[C@H]3CCCO3)c2c1`: the “% Inhibition” value is 6% and the Z score was -1.1.
For `CNC(=O)c1cc(Oc2cccc(NC3CCN([C@H]4CCOC4)CC3)c2)ccn1`, the “% Inhibition” value is listed as 2% and the Z score is given as -0.23.
The like results for `COc1ccc(-n2nc(C)c3c(O)cc(-c4ccccc4OC)nc32)cc1` were, in that order, -3% and 0.52.
With `COc1ccc(Nc2cc(N3CCC4OCC(=O)NC4C3)ncn2)c(OC)c1` (stereo unspecified), the “% Inhibition” value is given as -1% and the Z score came to 0.16.
Take `CC(=O)N1CCN(c2ccc(CNc3cnc4cc(Cl)c(Cl)cc4n3)cc2)CC1`: the “% Inhibition” value amounted to 2% and the Z score was -0.34.
In the case of `CN(C[C@H](O)COc1ccccc1CN1CCC(c2ccncc2)CC1)C1CCCCC1`, the “% Inhibition” value came out at 41% and the Z score is given as -8.15.
Regarding `O=C(NC1CCCCNC1)N1CCC2(CCCNC2)C1` (stereo unspecified), the “% Inhibition” value was 0% and the Z score is on record as -0.01.
In the case of `O=S1(=O)CCC(CN2CCC[C@H](c3c[nH]c4ncccc34)C2)CC1`, the “% Inhibition” value is on record as -11% and the Z score was determined as 1.6.
The like results for `C[C@@H](c1ccc(-c2nccc(N3CCC(O)CC3)n2)cc1)N1CCCCC1` were, in that order, 5% and -1.12.
The corresponding values for `CC(C)[C@H]1C=CCN1C(=O)c1cccc(-c2ccc(NC3CCCC3)nn2)c1` are -9% and 1.97.
`COc1ccc(OC)c2nc(N3CCOCC3)c(CN(C[C@H]3COc4ccccc4O3)C(C)=O)cc12`: the “% Inhibition” value is 5% and the Z score was -0.87.
As for `CCCn1ncc(C(=O)NCCc2c(C)[nH]c3ccc(C#N)cc23)c1C`, the “% Inhibition” value is reported as -6% and the Z score is recorded as 1.15.
Take `C[C@@H](c1cccc(-c2cc(N3CCOCC3)nc(N)n2)c1)N1CCCC1`: the “% Inhibition” value is reported as -1% and the Z score worked out at 0.25.
The corresponding values for `Cn1nccc1NC(=O)Cn1cc(-c2csc(CN3CCNCC3)c2)cn1` are -8% and 1.37.
For `Fc1ccc(Cn2c3ccccc3c3nnc(NCCc4c[nH]c5ccccc45)nc32)cc1`, the “% Inhibition” value was -12% and the Z score is recorded as 2.07.
The corresponding values for `Cc1n[nH]c(C)c1CNC(=O)Nc1ccc2c(c1)OCC(=O)N2C` are 3% and -0.56.
On to `CC(=O)c1cnc(NC2CC(C)(C)NC(C)(C)C2)nc1C`, for which the “% Inhibition” value came to 18% and the Z score was -3.18.
As to `Oc1ccc(-c2ccccc2OC[C@@H](O)CN2CCCCC2)cc1OC(F)(F)F`, the “% Inhibition” value stood at 14% and the Z score was -2.41.
With `Cc1nc(Nc2cnn(CC(F)(F)F)c2)cc(-c2cccnc2)n1`, the “% Inhibition” value amounted to 2% and the Z score is -0.38.
On to `O[C@H](CN1CCOCC1)CN1CCC(Nc2ccccc2F)CC1`, for which the “% Inhibition” value is -1% and the Z score turned out to be 0.2.
Regarding `C1CC2(CCN1)COC(CN1CC3CCNCC3C1)C2` (stereo unspecified), the “% Inhibition” value is reported as -1% and the Z score was determined as 0.08.
As to `O=C([C@H]1CCCN(Cc2coc3ccccc23)C1)N1CCOCC1`, the “% Inhibition” value is -2% and the Z score stood at 0.47.
On to `CC(C)N1CCN(CCCN2CC3(CCN(C(=O)[C@@H]4CCCN4)CC3)OC2=O)CC1`, for which the “% Inhibition” value is given as -11% and the Z score stood at 2.
Take `COc1ccccc1-c1ncc(CN(C)C2CCOCC2)cn1`: the “% Inhibition” value is -9% and the Z score came to 1.84.
Regarding `c1nc(N2CCCC2)cc(N2CCC(Nc3nccs3)CC2)n1`, the “% Inhibition” value was -12% and the Z score is on record as 2.1.
For the compound `O=C(c1cn(CCN2CCNCC2)nn1)N1CCC(c2ccncc2)CC1`, the “% Inhibition” value was found to be 1% and the Z score was -0.21.
Regarding `COc1ccc(Nc2nc(N(C)CCC(C)O)cc(N(C)CCC(C)O)n2)cc1` (stereo unspecified), the “% Inhibition” value is recorded as 10% and the Z score is on record as -1.76.
`O=C(c1nc(=O)[nH]c2ccccc12)N1CCc2c([nH]c3ccccc23)[C@@H]1C1CCCCC1`: the “% Inhibition” value was -7% and the Z score stood at 1.13.
On to `Brc1cncc([C@@H](Nc2ncnc3[nH]ccc23)C2CC2)c1`, for which the “% Inhibition” value came to 3% and the Z score is on record as -0.58.
`Cc1cccc(C)c1OCCCn1nnnc1C1(O)CCOCC1`: the “% Inhibition” value is recorded as -7% and the Z score came to 1.58.
The corresponding values for `O=C(NC1CCN(Cc2ccncc2)CC1)c1ccc(-c2ccccc2)[nH]1` are -7% and 1.46.
For the compound `CN(C)c1nc(NC2CCN(Cc3ccccc3Cl)CC2)ncc1F`, the “% Inhibition” value is on record as -1% and the Z score stood at 0.23.
On to `OC[C@H]1CCCCN1CCNc1cnc2ccccc2n1`, for which the “% Inhibition” value was 8% and the Z score is given as -1.44.
The corresponding values for `c1ccc(Oc2ccccc2-c2cnc3nn[nH]c3c2)cc1` are -3% and 0.51.
Turning to `Nc1cccc(OCC2CCOCC2)c1`, the “% Inhibition” value is recorded as 3% and the Z score was -0.69.
Take `c1cc(CO[C@H]2CCOC2)cc(-c2ccc3nccn3c2)c1`: the “% Inhibition” value was -1% and the Z score came to 0.13.
Turning to `CCn1cc(-c2cccc(C(=O)N3CCN(C4CCCCC4)CC3)c2)cn1`, the “% Inhibition” value is listed as -10% and the Z score is given as 1.9.
For the compound `Cc1nc(C#N)c(N2CCC(C(=O)Nc3nc4ccccc4[nH]3)CC2)o1`, the “% Inhibition” value is -14% and the Z score was 2.38.
As for `CC(C)c1ccc([C@@H]2CCCCN2c2cc(-n3ccnc3)ncn2)cc1`, the “% Inhibition” value is -5% and the Z score worked out at 0.95.
For `CCCN1C(=O)C2CCC1CN(Cc1cnn(-c3ccccc3)c1)C2` (stereo unspecified), the “% Inhibition” value is recorded as -2% and the Z score is on record as 0.32.
As for `CC(C1CCCN(C(=O)OC(C)(C)C)C1)N1CCN(CC(=O)N2CCCCCC2)CC1` (stereo unspecified), the “% Inhibition” value was 2% and the Z score was -0.42.
As to `Cc1cc(OCC(N)=O)ccc1N[C@H]1CCN(c2ccccc2)C1=O`, the “% Inhibition” value is given as -2% and the Z score stood at 0.44.
Regarding `CN[C@H]1CCN(c2cc(NC3(C)CC3)nc(N)n2)C1`, the “% Inhibition” value was 7% and the Z score is given as -1.06.
In the case of `Cc1ccccc1COc1cccc2[nH]c(C(=O)N3CCC(N4CCCCC4)CC3)cc12`, the “% Inhibition” value was 0% and the Z score is reported as 0.01.
`c1ccc2c3c([nH]c2c1)CN(c1ncnc2[nH]ccc12)CC3`: the “% Inhibition” value was -5% and the Z score came out at 0.97.
As to `c1cc2cc(CN3CCCC[C@@H]3CN3CCOCC3)ccc2[nH]1`, the “% Inhibition” value stood at 3% and the Z score was -0.62.
The like results for `CCN(CC1CCN(C2CCN(C)CC2)CC1)C(=O)[C@@H]1CCCCN1CC` were, in that order, 5% and -0.83.
Take `CN(C)C(=O)c1ccc(CNc2nc3ccccc3n2CCCc2ccccc2)[nH]1`: the “% Inhibition” value is given as -9% and the Z score was determined as 1.47.
As for `Cc1ccc(C(=O)Nc2cnn(-c3ccc(C(=O)N4CC[C@H](c5ccc(F)cc5)C4)cc3)c2)c(C)c1`, the “% Inhibition” value is on record as -8% and the Z score is reported as 1.56.
As to `Clc1ccc2nc(CN(Cc3cccnc3)CC3CCN(C4CCCC4)CC3)ccc2c1`, the “% Inhibition” value is -7% and the Z score amounted to 1.18.
Turning to `Cn1cc(CN[C@H]2CCN(c3ccccn3)C2)c(-c2ccncc2)n1`, the “% Inhibition” value is on record as 4% and the Z score is -0.68.
As to `CN1CCC(N(Cc2ccccc2)C(=O)c2cc3cnccc3[nH]2)CC1`, the “% Inhibition” value came to 52% and the Z score is listed as -7.83.
The corresponding values for `c1cnc2[nH]cc(C3CCN(c4ncnc5nc[nH]c45)CC3)c2c1` are -1% and 0.14.
For the compound `CC(C(=O)NCc1ccc(CN2CCOCC2)cc1)N1CCC(CNc2ccccn2)C1` (stereo unspecified), the “% Inhibition” value worked out at 5% and the Z score is given as -0.72.
Turning to `CC1(C)CC(NCc2cccc3cn[nH]c23)CC(C)(C)N1`, the “% Inhibition” value amounted to 3% and the Z score was -0.7.
Consider `CC(C)C(NC1CCOCC1)C(=O)NC1CCN(C2CCCC2)C1` (stereo unspecified), for which the “% Inhibition” value worked out at 0% and the Z score was -0.07.
The corresponding values for `CCC(C)C(NC(=O)c1csc(-c2ccsc2)n1)C(=O)NCCN1CCOCC1` (stereo unspecified) are -4% and 0.82.
`O[C@@H]1C[C@H]2CN(c3cccc(-n4cnc5ccccc54)n3)CCN2C1`: the “% Inhibition” value is recorded as -6% and the Z score worked out at 0.99.
For `CC(C)CC(C)OC(=O)N1CC2(CC(O)CNC2=O)C1` (stereo unspecified), the “% Inhibition” value came out at 5% and the Z score is on record as -1.
Regarding `O=C(N[C@H]1C[C@H](CO)C1)c1cc(-c2c[nH]c3ccccc23)[nH]n1`, the “% Inhibition” value is -2% and the Z score is reported as 0.48.
The corresponding values for `Cc1cc(F)ccc1N1CCC(NC[C@H](O)c2cccc(O)c2)CC1` are -6% and 1.1.
The corresponding values for `COC(=O)N1CCC2(CCC(N3CCN(c4ccncc4)CC3)CC2)CC1` are 8% and -1.76.
As for `CN1CCC2CCC(C1)N2C(=O)c1cccc(-c2cc(NCCO)ncn2)c1` (stereo unspecified), the “% Inhibition” value was found to be 0% and the Z score is listed as 0.07.
The corresponding values for `N#Cc1ncccc1S(=O)(=O)N1CCN(Cc2ccccc2)C2(CCCCC2)C1` are -15% and 2.56.
For `Nc1cccc(-c2ccc3nncn3n2)c1`, the “% Inhibition” value is recorded as -5% and the Z score worked out at 0.7.
The corresponding values for `CCn1nccc1C=Cc1nc2ccc(C(=O)O)cc2o1` are -4% and 0.8.
The like results for `CCc1nn(C)c2[nH]nc(NC(=O)c3[nH]nc4c3CCCC4)c12` were, in that order, -6% and 1.22.
With `c1cn(CCCN2CCCN(C3CCCC3)CC2)cn1`, the “% Inhibition” value was -6% and the Z score was 1.04.
For the compound `CN1CCC(CNc2ncnc3c2CCNCC3)(c2ccccc2)CC1`, the “% Inhibition” value is on record as 2% and the Z score was -0.36.
Take `COc1ccc(C(O)CNC2CCc3ccc(F)cc32)cc1` (stereo unspecified): the “% Inhibition” value stood at 0% and the Z score is recorded as 0.04.
